# Measurements reported in patent US20230125173A1 (HCW BIOLOGICS, published 2023).
# T1: TGFβ Receptor II/IL-15RαSu fusion protein (human)
# T1 construct: also called TGFβR/IL-15RαSu; TGFR/IL15RαSu
# T1 chain: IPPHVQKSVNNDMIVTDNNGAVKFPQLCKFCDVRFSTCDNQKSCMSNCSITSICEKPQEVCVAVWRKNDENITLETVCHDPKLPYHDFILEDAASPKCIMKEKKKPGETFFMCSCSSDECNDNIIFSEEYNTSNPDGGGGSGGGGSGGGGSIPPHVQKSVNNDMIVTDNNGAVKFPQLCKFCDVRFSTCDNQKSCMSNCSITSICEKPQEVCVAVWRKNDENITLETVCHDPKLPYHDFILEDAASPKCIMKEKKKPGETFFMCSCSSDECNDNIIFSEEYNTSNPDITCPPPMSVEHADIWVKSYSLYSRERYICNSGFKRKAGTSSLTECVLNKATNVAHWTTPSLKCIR
# B1: TGFR/TF/IL15D8N fusion protein (other)
# chain: IPPHVQKSVNNDMIVTDNNGAVKFPQLCKFCDVRFSTCDNQKSCMSNCSITSICEKPQEVCVAVWRKNDENITLETVCHDPKLPYHDFILEDAASPKCIMKEKKKPGETFFMCSCSSDECNDNIIFSEEYNTSNPDGGGGSGGGGSGGGGSIPPHVQKSVNNDMIVTDNNGAVKFPQLCKFCDVRFSTCDNQKSCMSNCSITSICEKPQEVCVAVWRKNDENITLETVCHDPKLPYHDFILEDAASPKCIMKEKKKPGETFFMCSCSSDECNDNIIFSEEYNTSNPDSGTTNTVAAYNLTWKSTNFKTILEWEPKPVNQVYTVQISTKSGDWKSKCFYTTDTECDLTDEIVKDVKQTYLARVFSYPAGNVESTGSAGEPLYENSPEFTPYLETNLGQPTIQSFEQVGTKVNVTVEDERTLVRRNNTFLSLRDVFGKDLIYTLYYWKSSSSGKKTAKTNTNEFLIDVDKGENYCFSVQAVIPSRTVNRKSTDSPVECMGQEKGEFRE[omitted - about 120 residues with changes]
# notes: First chain of TGFRt15*-TGFRs; Residue limits counted from the printed signal peptide (17 residues)
# Biological target: T1, TGFβ Receptor II/IL-15RαSu fusion …
# Experiment: co-expression in CHO-K1 cells, complex formation
# Description: Co-expression of the two constructs in CHO-K1 cells allowed for formation and secretion of the soluble TGFβR/TF/IL-15:TGFβR/IL-15RαSu protein complex (referred to as TGFRt15-TGFRs), which can be purified by anti-TF IgG1 affinity and other chromatography methods.
binder,measurement,value
B1,binding result,binds
